Results as given in PubChem BioAssay AID445 (National Center for Advancing Translational Sciences (NCATS), 2006).
Hit rate of the full screen: of about 110,000 compounds, about 40 (0.04%) were called active. This list was built around the results that the source calls inconclusive (neither active nor inactive); the mix of calls is not that of the screen. The call rests on the fitted dose curve; in most records, active means well fitted curve in the direction sought with a large enough effect in the signal ratio (not every such curve was filed as active); inconclusive means small, poorly fitted or top-dose-only effect, or a change in a side signal; inactive means flat fitted curve, though single readings scatter; the % refers to the signal ratio. A potency beside an inconclusive call is a rough fit, not a confirmed value.

Assay: IkB Signaling;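 on IkBa stabilization activation: 0% = basal untreated cells and 100% = reference inhibitor full response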
Conditions: ABC-DLBCL IkBa-CBG/CBR dual luciferase ratio (green luciferase fused to IkBa over red control in OCI-Ly3 lymphoma cells), 4 h; IkBa stabilization activation: at 57.1 µM (top of the series), scaled: untreated 0%, proteasome inhibitor 100% unless noted
Summary of the method: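 Luminescence ratio of IκBα-fused green versus native red beetle luciferase in OCI-Ly3 cells, 4 h post-doxycycline with compound; red signal alone, scaled from basal (0%) to zero light (-100%), flagged nonspecific or cytotoxic effects.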
Potency means the concentration at half of the fitted maximal effect.

Compound	IkBa stabilization activation	Potency
Clc1cccc(-n2cc(-c3ccccc3)c3c(NC4CCCC4)ncnc32)c1	inconclusive: 0.444% [signal inhibitor]	–
COc1ccccc1NC(=O)CSc1nc2c(oc3ccccc32)c(=O)n1Cc1ccco1	inconclusive: 1.35% [signal inhibitor]	–
Cc1ccc(C)c(/C(=N\N=C(N)N)C2CC2)c1	inactive: -0.234% [at 11.4 µM, scaled: untreated 0%, proteasome inhibitor 100%]	–
COc1ccc(NC(=O)C2CCCN(S(=O)(=O)c3cccc4nonc34)C2)cc1Cl (centres undefined)	inactive	–
COc1cccc(N2CCN(c3ncnc4c3c(-c3ccccc3)cn4-c3ccc(F)cc3)CC2)c1	inconclusive: -1.47% [signal inhibitor]	–
CCCCN(CC)C(=O)CCCn1c(=O)c2cccn2c2ccccc21	inconclusive: 1.15% [signal inhibitor]	–
CCOC(=O)c1cnc(N2CCN(c3ccc(OC)cc3)CC2)c2ccccc12	inconclusive: 1.37% [signal inhibitor]	–
O=C(NCC(c1cccnc1)N1CCN(c2ccc(F)cc2)CC1)c1cccc(Cl)c1 (centres undefined)	inconclusive: 3.8% [signal inhibitor]	–
CCN1CCN(c2ncnc3c2cnn3-c2cc(Cl)ccc2C)CC1	inconclusive: 10.3% [signal inhibitor]	–
CC(C)c1ccc(-c2noc(C3CCCN(C(=O)c4ccc(F)cc4F)C3)n2)cc1 (centres undefined)	inconclusive: 2.54% [signal inhibitor]	–
O=C(Cn1nc(-c2ccc(Cl)cc2)ccc1=O)NCCc1ccccc1	inconclusive: 3.42% [signal inhibitor]	–
CCOC(=O)c1c(-c2ccccc2)nnn1-c1nc(OCC)nc(N2CCCCC2)n1	inconclusive: 0.605% [signal inhibitor]	–
CCCc1[nH]nc2c1C(c1ccc(Br)s1)C(C#N)=C(N)O2 (centres undefined)	–	inconclusive: 6.31 µM [signal inhibitor, single point]
COc1ccc(CNC(=O)CCNS(=O)(=O)c2ccc3c(c2)CCCC(=O)N3)cc1	inactive	–
COc1ccc(C(=O)NCC(c2cccnc2)N2CCN(c3ccc(F)cc3)CC2)cc1OC (centres undefined)	inactive	–
CCn1c2ccccc2c2nc3ccccc3nc21	inactive	–
Cc1ccc(-c2cc(C(=O)OCC(=O)Nc3cc(C)on3)c3ccccc3n2)c(C)c1	inconclusive: 0.603% [signal inhibitor]	–
COc1ccc(OC)c(S(=O)(=O)N2CCCCCC2)c1	inactive	–
Cc1cc(N2CCN(c3ccccc3)CC2)n2nnnc2n1	inactive	–
Cc1ccc2nc(NC(=O)Cn3cc4c(n3)CCCCC4)sc2c1	inactive	–
O=C(COc1ccccc1)OCc1cc(=O)n2nc(-c3cccs3)sc2n1	inconclusive: 2.13% [signal inhibitor]	–
COc1ccc(CNC(=O)c2cnc3ccc(C)cn3c2=O)cc1	inactive	–
Cc1ccccc1NC(=O)c1ccc(N(Cc2ccccc2)S(C)(=O)=O)cc1	inconclusive: 0.163% [signal inhibitor]	–

Compound	IkBa stabilization activation	Potency
CCc1nc(N2CCCC(C)C2)c2oc3ccccc3c2n1 (centres undefined)	inactive	–
CC(C)(C)OC(=O)N1CCC(c2c(C(=O)Nc3ccc4c(c3)OCO4)cnn2-c2ccccc2)CC1	inconclusive: 3.2% [signal inhibitor]	–
COC(=O)c1ccccc1NC(=O)CCS(=O)(=O)c1nc(-c2ccc3c(c2)OCO3)cc(C(F)(F)F)n1	–	inconclusive: 6.31 µM [rising, single point]
CCOCCCn1c(=N)c(S(=O)(=O)c2ccc(Cl)cc2)cc2c(=O)n3cccc(C)c3nc21	inconclusive: 1.44% [signal inhibitor]	–
COc1ccccc1CNc1ncnc2c1nnn2C	inconclusive: 2.13% [signal inhibitor]	–
COC(=O)c1c(-c2cccs2)csc1NC(=O)c1ccc(C(C)C)cc1	inconclusive: -0.135% [signal inhibitor]	–
Cc1ccc(NC(=O)CCS(=O)(=O)c2ccc3c(c2)oc(=O)n3C)c(Br)c1	inconclusive: -0.0147% [signal inhibitor]	–
Cc1ccc2nc(COc3cccc(NC(=O)COc4ccc(F)cc4)c3)cc(=O)n2c1	inconclusive: 1.88% [signal inhibitor]	–
COc1ccc(NC(=O)c2cc3c(C)nn(-c4ccccc4)c3s2)c(OC)c1	inconclusive: 0.162% [signal inhibitor]	–
COc1ccc(-c2nc(CSCC(=O)N3CCN(c4ccccc4)CC3)c(C)o2)cc1	inconclusive: 5.59% [signal inhibitor]	–
CC(=O)c1cccc(NS(=O)(=O)c2cccc(S(=O)(=O)c3ccc(Br)cc3)c2)c1	inconclusive: 7.71% [signal inhibitor]	–
CCOc1cc(C(=O)N2CCN(c3ccccc3)CC2)cc(OCC)c1OCC	inactive	–
CCOc1cc2c(cc1OCC)C(c1ccc(O)c(OC)c1)NCC2 (centres undefined)	inactive	–
COCCNC(=O)c1[nH]c2cc(C)ccc2c1Sc1ccc(Cl)cc1	inactive	–
Cc1sc2ncnc(Oc3ccc(-n4ccnc4)cc3)c2c1C	inconclusive: 4.18% [signal inhibitor]	–
CCOC(=O)c1ccc(NC(=O)CCc2nc3cccnc3n2Cc2cccs2)cc1	inconclusive: 1.56% [signal inhibitor]	–
O=C(Nc1ccc(O)cc1)c1ccc(C(=O)c2ccccc2)o1	inconclusive: 12.3% [signal inhibitor]	–
Cc1cccc(NC(=O)/C(C#N)=C/c2ccc(C)o2)c1	–	inconclusive: 25.1 µM [signal inhibitor, partial curve]
Cc1ccc(S(=O)(=O)c2cn(CC(=O)Nc3ccc(Cl)cc3)c3ccc(F)cc3c2=O)cc1C	inconclusive: 0.327% [signal inhibitor]	–
Cc1ccc2c(c1)nnn2C1CCN(S(=O)(=O)c2ccc(C(=O)N3C(C)CCCC3C)cc2)CC1 (centres undefined)	inconclusive: 2.35% [signal inhibitor]	–
CCOC(=O)c1c2c(n3ccccc13)C(=O)c1ccccc1C2=O	inactive: -5.16% [at 11.4 µM, scaled: untreated 0%, proteasome inhibitor 100%]	–
CSc1ccc(CCNC(=O)c2c(C)oc3ncn(C)c(=O)c23)cc1	inconclusive: -0.516% [signal inhibitor]	–
Cc1cccc(Cn2c(Cc3ccccc3)nc3ccccc32)c1	inconclusive: 0.062% [signal inhibitor]	–

Compound	IkBa stabilization activation	Potency
O=C(CN1c2ccccc2S(=O)(=O)c2ccccc21)Nc1cccc(C(F)(F)F)c1	inconclusive: 1.62% [signal inhibitor]	–
COc1ccc(CCN2CCC(CNC(=O)c3cnn(-c4cccc(Cl)c4)c3C3CCN(C(=O)OC(C)(C)C)CC3)CC2)cc1	inconclusive: -1.24% [signal inhibitor]	–
O=C(NCc1ccc(F)cc1)c1ccc2oc(=O)n(Cc3ccccc3)c2c1	inconclusive: 2.54% [signal inhibitor]	–
COc1ccccc1NC(=O)C(=O)NCC(c1cccnc1)N1CCc2ccccc2C1 (centres undefined)	inconclusive: 1.27% [signal inhibitor]	–
Oc1c(C(c2cccs2)N2CCOCC2)sc2ncnn12 (centres undefined)	inactive	–
COC(=O)c1ccc(NC(=O)CCc2c(C)nn(-c3ccc(N4CCCCC4)nn3)c2C)cc1	inconclusive: -1.83% [signal inhibitor]	–
Clc1ccc(-c2nnc3sc(-c4ccco4)nn23)c(Cl)c1	inactive	–
Cc1ccccc1-c1nc(Nc2ccncc2)c2ccccc2n1	inactive: -5.69% [at 11.4 µM, scaled: untreated 0%, proteasome inhibitor 100%]	–
O=c1c2oc3ccccc3c2n(Cc2cccc(F)c2)c(=O)n1Cc1ccc2c(c1)OCO2	inconclusive: 0.971% [signal inhibitor]	–
COCCn1nnnc1C(c1ccccc1)N1CCN(Cc2ccc3c(c2)OCO3)CC1 (centres undefined)	inactive	–
CCOc1ccc(C2c3c(oc4ccccc4c3=O)C(=O)N2c2ccc(C)cn2)cc1OC (centres undefined)	inactive	–
C=Cc1ccc(Cn2c(SCC(=O)N3CCN(c4ccc(F)cc4)CC3)nc3ccccc32)cc1	inconclusive: 0.44% [signal inhibitor]	–
CCCCNc1cc(C)nc(NCc2ccccc2)n1	inconclusive: 6.04% [signal inhibitor]	–
CCOC(=O)c1ccccc1NC(=O)N1CCCn2nc(C)cc21	inconclusive: -0.294% [signal inhibitor]	–
Cc1cc(C)cc(N2C(=O)CSC23C(=O)N(CC(=O)NC2CCCCC2)c2ccccc23)c1 (centres undefined)	inconclusive: 5.29% [signal inhibitor]	–
COc1ccc(C(=O)Nc2cccc(OCc3cc(=O)n4c5c(sc4n3)CCCC5)c2)cc1OC	inconclusive: 14.7% [signal inhibitor]	–
COc1ccccc1NC(=O)CN1CCN(CC(=O)Nc2ccc(F)cc2)CC1	inconclusive: 15.6% [signal inhibitor]	–
O=C1c2ccccc2C(=O)N1Cc1nc2ccccc2c(=O)n1CCCn1ccnc1	inactive	–
Cc1noc(/C=C/c2ccccc2F)c1S(=O)(=O)N1CCC(C(=O)NCc2ccco2)CC1	inactive	–
CCOC(=O)c1c(C)[nH]c(C(=O)OCC(=O)N2c3ccccc3CC2C)c1C (centres undefined)	inconclusive: 1.94% [signal inhibitor]	–
COc1ccc(CCNC(=O)CCc2c(C)nc3cc(-c4ccc(Cl)cc4)nn3c2C)c(OC)c1	–	inconclusive: 0.794 µM [signal inhibitor, full curve]
N#Cc1c(-c2ccccc2)cc(-c2ccccc2)nc1SCC(O)CS(=O)(=O)Cc1ccccc1 (centres undefined)	inactive	–
O=C(CCc1ccccc1)N(Cc1cccnc1)c1nc2ccc(F)cc2s1	inconclusive: 1.77% [signal inhibitor]	–
